# Assay results reported in PMC4336329 (PLoS ONE, 2015).
# In all, about 310,000 compounds went through this assay and about 2,200 (0.71%) showed an effect of 50% or more. Effects have a minus sign here. This is one part of the list.
# Target: human ether-à-go-go-related gene (hERG) potassium channel (human, UniProt Q12809)
# Assay: primary screen, population patch clamp on CHO cells stably expressing hERG
# Sequence of human ether-à-go-go-related gene (hERG) potassium channel (Q12809 whole entry, looked up): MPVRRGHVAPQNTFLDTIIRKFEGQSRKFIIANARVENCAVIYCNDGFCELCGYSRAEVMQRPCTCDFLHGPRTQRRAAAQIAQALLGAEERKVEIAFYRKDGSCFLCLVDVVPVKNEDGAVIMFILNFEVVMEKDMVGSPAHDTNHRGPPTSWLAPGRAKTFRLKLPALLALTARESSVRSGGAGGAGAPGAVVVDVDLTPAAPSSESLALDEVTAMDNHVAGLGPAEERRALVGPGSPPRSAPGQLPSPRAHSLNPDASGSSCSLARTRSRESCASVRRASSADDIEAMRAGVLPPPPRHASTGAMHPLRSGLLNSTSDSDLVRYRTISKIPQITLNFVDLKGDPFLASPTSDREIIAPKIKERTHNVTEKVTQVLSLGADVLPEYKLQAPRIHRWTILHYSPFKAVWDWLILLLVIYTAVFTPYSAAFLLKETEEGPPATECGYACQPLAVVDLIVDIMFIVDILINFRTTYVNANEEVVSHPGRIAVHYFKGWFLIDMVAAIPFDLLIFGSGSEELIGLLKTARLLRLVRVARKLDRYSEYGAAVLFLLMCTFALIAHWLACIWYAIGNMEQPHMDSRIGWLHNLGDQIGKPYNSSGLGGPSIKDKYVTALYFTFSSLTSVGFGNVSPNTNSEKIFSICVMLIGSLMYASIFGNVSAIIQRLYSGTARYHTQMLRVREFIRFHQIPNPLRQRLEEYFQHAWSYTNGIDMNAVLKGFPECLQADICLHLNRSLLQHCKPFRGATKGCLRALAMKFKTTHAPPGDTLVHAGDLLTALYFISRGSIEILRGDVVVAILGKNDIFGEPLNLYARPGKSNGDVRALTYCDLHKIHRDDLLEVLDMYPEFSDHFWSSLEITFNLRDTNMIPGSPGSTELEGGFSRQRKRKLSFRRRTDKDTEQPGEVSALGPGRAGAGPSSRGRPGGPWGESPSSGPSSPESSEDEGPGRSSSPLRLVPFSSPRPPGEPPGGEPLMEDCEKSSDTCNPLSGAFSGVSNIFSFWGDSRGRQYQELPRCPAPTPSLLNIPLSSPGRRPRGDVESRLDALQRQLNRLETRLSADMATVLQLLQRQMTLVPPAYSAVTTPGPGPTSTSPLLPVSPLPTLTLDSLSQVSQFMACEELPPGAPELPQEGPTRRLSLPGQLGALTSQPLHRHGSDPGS
row,Structure (SMILES),"hERG current change (%, negative = inhibition) at 1uM [%]"
1,Cc1ccc(-n2c(-c3ccc(Cl)cc3)n[nH]c2=S)cc1,9.84
2,Cn1c(=O)c2[nH]c(-c3ccc(S(=O)(=O)O)cc3)nc2n(C)c1=O.O,11.2
3,CC(=O)Nc1cccc(C(=O)N(Cc2ccccc2)Cc2ccccc2)c1,15.1
4,CC(=O)Nc1ccc2oc(-c3ccccc3)nc2c1,16.1
5,COc1ccc(C(=O)Nc2cc(OC)ccc2OC)cc1,13.8
6,COc1cc(O)c(C(CCN2CCCCC2)c2ccc3c(c2)OCO3)c(OC)c1 (stereo not shown),-72.1
7,COC(=O)c1nc(NC2=NCCCCC2)n[nH]1,10.4
8,CC1(C)CC(OC(=O)c2ccccc2)CC(C)(C)N1,9.89
9,COc1ccc2nc(C)cc(N/N=C/c3ccccc3)c2c1,5.19
10,CCOc1ccccc1C(=O)NCC(=O)Nc1ccc2c(c1)OCO2,8.79
11,CCS(=O)(=O)c1ccc(NC(=O)c2ccccc2Cl)c(O)c1,4.15
12,COc1ccccc1NS(=O)(=O)c1cc(NC(=O)c2ccc3c(c2)OCCO3)ccc1C,8.49
13,Nc1c(S(=O)(=O)c2ccccc2)c2nc3ccccc3nc2n1/N=C/c1cccc(O)c1,10.4
14,COC(=O)C1CSC(c2ccc(Cl)cc2)N1C(=O)c1ccccc1 (stereo not shown),0.633
15,O=c1[nH]c2cc3c(cc2cc1C(c1nnnn1CC1CCCO1)N1CCCC1)OCO3 (stereo not shown),15.4
16,COC(=O)c1c(C)[nH]c(C(=O)OCC(=O)N2c3ccccc3NC(=O)C2(C)C)c1C,7.72
17,CCCc1cnc(N2CCN(S(=O)(=O)c3cccs3)CC2)nc1,6.84
18,O=C(O)c1ccc(NC(=O)c2cccc(NC(=O)c3cccs3)c2)cc1,-0.166
19,CCN(CC)CCOC(=O)c1ccccc1Br.Cl,7.4
20,CCc1cccc2c(C(=O)COC(=O)/C=C/c3ccccc3OC)c[nH]c12,-6.37
21,COc1ccccc1NC(=O)C1=C(C)NC2=C(C(=O)CCC2)C1c1ccc2c(c1)OCO2 (stereo not shown),7.68
22,COc1ccc(NC(=S)Nc2cccnc2)c(OC)c1,12.3

row,Structure (SMILES),"hERG current change (%, negative = inhibition) at 1uM [%]"
1,Cc1cc(NC(=O)Nc2c[nH]c(=O)[nH]c2=O)ccc1Br,10.6
2,O=C(COC(=O)c1sc2ccccc2c1Cl)Nc1ncc(Cl)cc1Cl,-4.17
3,CC1CCN(S(=O)(=O)c2ccc3c(c2)C(=NO)c2cc(S(=O)(=O)N4CCC(C)CC4)ccc2-3)CC1,12.7
4,COc1ccccc1NC(=O)CSc1nnc(-c2ccccn2)o1,12.9
5,CC(CCc1ccccc1)NC(=O)COc1ccc(S(=O)(=O)N2CCOCC2)cc1[N+](=O)[O-] (stereo not shown),11.6
6,c1cnc2c(OCc3cn4cccnc4n3)cccc2c1,14.4
7,O=C(NCCCn1ccnc1)C(=O)NCC(c1cccnc1)N1CCN(c2ccc(F)cc2)CC1 (stereo not shown),8.4
8,O=[N+]([O-])c1cc(Br)c(Nc2ccccc2)c([N+](=O)[O-])c1,5.87
9,Cc1cc(OCC(=O)NCc2ccncc2)c2c(C)c(C)c(=O)oc2c1,-7.2
10,CCN1CCN(S(=O)(=O)c2ccc(Cl)c(C(=O)N(C)Cc3cccs3)c2)CC1,7.19
11,CC(=O)Nc1ccc(S(=O)(=O)N2C(=O)c3cccc4cccc2c34)cc1,1.58
12,CCCCc1nc(C(N)=O)c2[nH]c(=O)n(-c3ccc(OCC)cc3)c2n1,2.29
13,Cc1nc(Nc2ccccc2C(F)(F)F)sc1C(=O)N(C)C,4.52
14,CCOc1ccc(N=Nc2c(=O)[nH]n3c(=O)cc(C)[nH]c23)cc1,-2.15
15,CC(=O)N1CCN(C(=O)c2ccc(OC3CCN(Cc4ccccn4)CC3)cc2)CC1,16
16,CCC(CC)C(=O)NCCCN1CCOCC1,18.9
17,CC(OC(=O)C1CCN(S(=O)(=O)c2ccc(C(C)(C)C)cc2)CC1)C(=O)N1CCOCC1 (stereo not shown),-0.109
18,C[N+]12CCCCC1[C@@H](CO)CCC2.[Br-] (stereo partly shown),8
19,Cc1ccc(C2=NNC(=O)C(P(=O)(c3ccccc3)c3ccccc3)C2)cc1 (stereo not shown),4.78
20,CC1(C)O[C@@H]2[C@H](O1)[C@@H](COS(=O)(=O)[O-])O[C@H]2n1c(=S)[nH]c2c(=O)[nH]c(N)nc21.[K+],12.6
21,CCCc1cc2c(cc1NC(=O)c1ccccc1C)OCO2,11.2
22,O=C(CSc1nc2cc(C(=O)O)ccc2c(=O)n1-c1ccc(F)cc1)Nc1ccc(F)c(F)c1F,1.53

row,Structure (SMILES),"hERG current change (%, negative = inhibition) at 1uM [%]"
1,CC1CC1C(=O)N1CCN(S(=O)(=O)c2cc(C(F)(F)F)cc(C(F)(F)F)c2)CC1 (stereo not shown),-1.95
2,COc1ccc(/C(C)=N/OCC(=O)N2CC3(C)CC2CC(C)(C)C3)cc1 (stereo not shown),7.28
3,Cc1nnc(SCC(=O)c2c(N)n(C3CC3)c(=O)[nH]c2=O)n1-c1ccccc1,4.54
4,C/C(=N/NC(=O)CNC(=O)c1ccccc1F)c1ccc2c(c1)CCCC2,-3.08
5,O=S(=O)(c1ccc(SCc2ccc(Br)cc2)nc1)N1CCOCC1,7.97
6,CCOc1ccc(S(=O)(=O)NCC2CCCO2)c2cccnc12 (stereo not shown),10.4
7,Cc1ccc(CNC(=O)CCC(=O)N2CC(C)Oc3ccccc32)cc1 (stereo not shown),2.44
8,O=C(CS(=O)(=O)Cc1ccccc1)Nc1nc2ccccc2s1,0.335
9,Cc1sc2ncnc(N3CCC(C(=O)Nc4sc5c(c4C(N)=O)CCC(C)C5)CC3)c2c1C (stereo not shown),5
10,CN(CC(=O)Nc1cccc(F)c1)CC(=O)N(C)CC(=O)Nc1ccccc1Br,-0.525
11,O=C(NC12CC3CC(CC(C3)C1)C2)N1CCC(n2nnc3ccccc32)CC1,14.8
12,CCN1C(=NCCOC)N[C@@H](CCc2ccccc2)[C@H](C(=O)OC)[C@H]1C,0.82
13,CC(=O)NC1=NN(C(C)=O)C(c2ccc(C(C)C)cc2)S1 (stereo not shown),9.16
14,CCOC(=O)c1[nH]c(C)c(C(=O)NC(C)(C)C)c1C,1.95
15,O=C1NC(=O)C2(Cc3c(nc4ccccn4c3=O)N3CCCCCC32)C(=O)N1Cc1ccccc1 (stereo not shown),1.89
16,CCCCc1cc(=O)oc2c(CN(C)C)c(O)ccc12,-13
17,COC(=O)c1ccc(/C=C/c2ccc3cccc(OC(C)=O)c3n2)cc1,8.89
18,Cc1ccc(-c2csc(NC(=O)c3cccc(S(=O)(=O)N4CCN(C)CC4)c3)n2)cc1,2.74
19,O=C(CSc1ccc(-c2ccccc2)nn1)c1ccccc1,1.6
20,O=C(Cn1nnc(-c2ccc(CN3CCOCC3)cc2)n1)Nc1nc(-c2ccccc2)cs1,-7.77
21,CC(C)(C)C(=O)NNc1nc(-c2ccccc2)c2cc(Br)ccc2n1,7.18
22,CCOC(=O)C(Cc1c[nH]c2ccccc12)NC(=O)c1ccccc1Br (stereo not shown),8.17

row,Structure (SMILES),"hERG current change (%, negative = inhibition) at 1uM [%]"
1,CCCn1c(N)c(N(CCOC)C(=O)c2ccccc2)c(=O)[nH]c1=O,7.61
2,Nc1cc2c(cc1[N+](=O)[O-])OCCOCCOCCO2,8.23
3,CC(=O)c1cccc(NC(=O)Cn2cnc(S(=O)(=O)N3CCc4ccccc43)c2)c1,14.1
4,Cc1ccccc1Nc1nc(N)nc(CN2C(=O)NC3(CCCCC3C)C2=O)n1 (stereo not shown),-8.48
5,CC1CN(Cc2ccc(C#N)cc2Cl)CC(C)O1.Cl (stereo not shown),6.09
6,O=C(Nc1ccc(Cl)c(Cl)c1)Nc1ccccc1C(=O)O,7.58
7,OCCOCCn1c(C(CO)Nc2nc(-c3ccccc3Br)cs2)nc2ccccc21 (stereo not shown),-9.6
8,O=C(NC1CCOCC1)C1CCC(=O)N(Cc2cccc(C(F)(F)F)c2)C1 (stereo not shown),11
9,O=C1CC(Cc2ccccc2)C(=O)N1c1ncccn1 (stereo not shown),10.7
10,O=C(CSc1ccccc1)Nc1cccc(S(=O)(=O)N2CCCCC2)c1,2.28
11,CC(NC(=O)COC(=O)c1ccco1)c1ccccc1 (stereo not shown),0.122
12,Cc1cccc(/C=C/C(=O)c2ccc(N3CCOCC3)cc2)c1,13.6
13,COc1ccccc1NC(=O)C1CCCN(S(=O)(=O)c2cccc3nsnc23)C1 (stereo not shown),9.23
14,CC(=O)c1ccc(N/C=C\C(=O)c2ccc(C)cc2)cc1,15.7
15,Cc1cc(C)nc(Nc2nc3ccccc3o2)n1,0.768
16,O=C(CC1C(=O)NCCN1Cc1ccccc1)NCCC1=CCCCC1 (stereo not shown),15.5
17,Cc1ccc(-n2ncc3c(=O)[nH]c(SCC(=O)N4CCCC4)nc32)cc1C,12.9
18,CC1CCCCN1C(=O)C1CC(c2ccc(F)cc2)=NO1 (stereo not shown),-4.43
19,CC1(C)CC(N(Cc2ccccc2)C(=O)Cc2ccccc2)CCO1 (stereo not shown),8.38
20,CCOC(=O)N1CCN(C(=O)c2ccc(CS(=O)c3ccccc3)o2)CC1 (stereo not shown),12
21,CC(C)CCNCC1OCc2ccccc2CO1.Cl,6.42
22,Cc1ccc(OC(C)C(=O)N/N=C/c2ccccn2)cc1 (stereo not shown),18
